Data from the supplement of paper PMC12217912.
This is one part of the list. The full chains were built here from the parent and the listed change. Inactive controls read about 0.05.

B1: TEV protease; numbered along this chain (parent)
chain: MGESLFKGPRDYNPISSSICHLTNESDGHTTSLYGIGFGPFIITNKHLFRRNNGTLVVQSLHGVFKVKDTTTLQQHLVDGRDMIIIRMPKDFPPFPQKLKFREPQREERICLVTTNFQTKSMSSMVSDTSCTFPSGDGIFWKHWIQTKDGQCGSPLVSTRDGFIVGIHSASNFTNTNNYFTSVPKNFMELLTNQEAQQWVSGWRLNADSVLWGGHKVFMVKPEEPFQPVKEATQL

Variants of: B1
Assay: raw area under fraction-flipped curve 0-4 h after induction (AUC4h, not background-subtracted), DNA-recorder readout of cleavage of the substrate (dimensionless); higher = more cleavage of the substrate by the protease variant
Conditions: temperature: 34 °C; time window: 0-4 h after rhamnose induction
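Also: Bxb1 expression induced with 0.2% (w/v) L-rhamnose at OD600 near 0.5, cultures sampled hourly, flipped fraction per protease–substrate barcode pair counted by paired-end Illumina sequencing.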

Variant	area with substrate ENLYHQS	area with substrate ENLYIQS	area with substrate ENLYKQS	area with substrate ENLYLQS	area with substrate ENLYMQS	area with substrate ENLYNQS	area with substrate ENLYPQS	area with substrate ENLYSQS	area with substrate ENLYWQS	area with substrate ENLYYQS	area with substrate ENLYEQS	area with substrate ENLYGQS	area with substrate ENLYQQS	area with substrate ENLYTQS	area with substrate ENLYRQS	area with substrate ENLYVQS	area with substrate ENLYDQS
L56M	0.0619	0.102	0.0768	0.0969	0.0931	0.0714	0.0554	0.0643	0.0797	0.076	–	–	–	–	–	–	–
R160K	–	0.109	0.0649	–	0.12	0.0678	0.0796	–	0.0621	0.0573	0.0709	0.0697	–	–	–	–	–
P104T	–	–	–	–	0.0653	–	0.0621	0.0518	–	–	0.0605	0.0645	0.0598	0.0376	–	–	–
W144R	0.0779	0.1	–	–	0.0823	–	0.0486	–	–	0.0669	0.0951	0.0595	–	–	0.0701	–	–
G80P	0.053	–	–	–	–	0.0579	–	–	0.0646	–	0.0426	–	–	–	–	–	–
G80T	0.0538	–	0.0819	–	–	0.0656	0.0491	–	0.0774	0.055	0.0684	–	0.0608	–	0.0599	–	–
T176V	0.0829	0.106	–	–	–	–	0.0857	0.064	0.0444	0.0484	0.0586	–	–	–	–	0.0855	–
T176N	0.0712	0.0965	0.0716	–	0.0588	–	0.0637	0.0498	0.0452	–	0.0517	0.0886	–	–	0.0415	0.0708	0.0627
T176F	–	–	0.0544	–	0.0658	–	–	–	–	–	–	–	0.0663	–	–	–	0.0611
T176R	0.0531	–	0.0167	–	0.0652	–	0.0664	0.0636	–	–	–	–	0.0676	–	0.0738	0.106	–
W203A	0.0462	0.0691	0.0664	–	0.056	0.0576	0.0666	0.0583	0.0578	–	–	–	0.0654	0.0554	0.0653	0.093	–
E224R	0.0543	0.104	0.073	–	–	0.0664	–	–	0.0936	0.0418	0.0815	0.0554	0.066	–	0.0493	0.108	0.0724
E224S	0.0662	0.117	0.0655	0.0973	0.0846	–	0.0576	0.073	0.0847	0.0535	0.0636	0.0696	0.0729	0.081	–	0.112	0.0673
N175K	0.0674	0.12	0.0665	0.069	0.0678	0.0668	0.073	0.0745	–	0.0595	0.0607	0.0655	–	0.089	0.0623	0.119	0.0679
G136N	0.1	0.122	0.0593	0.069	0.107	0.066	0.0812	–	0.0701	0.0814	0.0847	0.0759	0.0621	0.0985	0.0678	0.14	–
T72S	0.0754	–	–	–	0.0874	0.0652	0.0765	0.0768	0.0741	0.0843	0.0643	0.0662	–	0.0922	–	–	–
T72G	0.0769	0.092	–	–	0.0704	0.0515	–	0.0695	–	0.0733	–	0.0619	0.06	0.0655	0.0657	0.0909	–
A232F	–	–	0.0224	–	–	–	0.0737	–	0.076	–	0.0602	0.0544	–	0.0778	–	0.111	–
A232N	0.0591	0.129	–	–	0.0869	0.0609	–	0.0601	–	–	–	–	0.0673	0.0457	0.0541	–	0.0582
A232K	0.0793	0.16	0.0591	–	–	0.0621	0.0735	0.0824	–	0.0796	–	–	0.0822	–	–	–	0.0713
A232T	0.0709	–	0.067	–	0.0786	–	–	–	0.0671	–	–	–	0.0442	–	0.0561	0.165	–
A232M	0.0627	–	0.0299	–	0.0932	0.0512	0.0543	–	0.0812	0.0704	0.0662	0.0711	0.0675	0.0803	0.0595	–	0.0723
A232V	–	–	–	–	–	0.0674	0.0771	0.0868	–	–	0.0769	0.0518	–	–	–	–	–
A232G	0.0791	–	–	–	–	0.0681	0.0823	0.0749	0.0773	–	0.0672	–	–	–	0.0497	–	0.0659
T192W	–	–	–	–	–	–	–	–	–	–	–	–	0.0624	–	–	–	–
T192G	–	0.0596	0.0693	–	0.0738	0.07	0.0618	0.0595	0.0769	–	0.0634	0.0514	–	0.0739	–	–	0.0704
K216D	–	–	0.0674	0.0698	–	–	0.0634	0.0599	0.0473	–	0.0495	–	–	–	–	–	–

Variant	area with substrate ENLYHQS	area with substrate ENLYIQS	area with substrate ENLYKQS	area with substrate ENLYLQS	area with substrate ENLYMQS	area with substrate ENLYNQS	area with substrate ENLYPQS	area with substrate ENLYSQS	area with substrate ENLYWQS	area with substrate ENLYYQS	area with substrate ENLYEQS	area with substrate ENLYGQS	area with substrate ENLYQQS	area with substrate ENLYTQS	area with substrate ENLYRQS	area with substrate ENLYVQS	area with substrate ENLYDQS
K216R	0.0899	–	–	–	–	–	–	–	–	–	–	–	–	–	–	–	–
K216I	0.0437	–	–	–	0.0841	0.0774	–	–	–	–	0.0623	0.0662	–	0.0698	–	–	–
V200L	0.0787	0.103	–	–	0.0942	0.0691	–	0.0735	–	–	0.0672	0.0741	0.057	–	0.0825	–	–
V200S	–	–	–	–	–	–	–	0.0547	0.048	–	–	–	–	–	–	–	–
V200A	0.041	0.0701	–	0.0721	–	–	0.0368	–	–	–	–	–	–	–	–	–	–
V200W	0.0602	0.0575	–	–	0.0534	0.0807	–	0.0866	–	–	–	–	–	–	0.0629	–	0.0504
V200I	–	–	–	–	0.055	–	0.0617	–	0.0822	–	–	–	–	–	0.0944	–	0.0518
V200T	–	–	0.0617	0.0635	0.0839	0.0522	0.0738	–	–	–	0.0708	0.0602	0.0712	–	–	0.101	0.0506
G8D	–	0.0944	–	–	0.0763	0.0581	0.0604	–	0.0623	0.0613	–	–	0.0619	–	–	–	–
H168N	0.0646	–	0.0529	–	–	–	0.0307	–	–	0.0646	0.0639	–	–	0.0525	–	0.059	0.0544
H168A	–	0.0598	–	0.065	0.0557	0.0482	0.0464	–	–	–	–	–	–	–	–	–	–
M88H	–	–	0.0399	–	–	0.0445	–	–	–	0.0443	–	–	0.048	0.0391	0.0627	–	–
D208S	–	–	0.0527	–	0.0824	0.0834	–	0.0947	0.0791	0.0366	–	0.0516	–	–	0.0713	–	0.0606
D208K	0.0812	–	0.0614	–	–	–	–	–	–	–	–	–	–	–	–	0.082	0.0526
L48E	0.0628	0.0598	0.0668	0.0445	0.0608	0.0616	0.0602	–	0.0599	0.0602	–	0.0594	0.0573	–	0.0583	0.0612	–
P184V	0.0499	–	0.0649	–	0.071	–	0.0637	0.059	0.0697	0.0587	0.0733	0.0629	0.051	–	–	–	0.0635
P184G	0.0686	0.101	–	–	0.0609	0.0618	–	–	–	0.0711	0.0778	0.0065	0.0575	0.0525	0.0792	–	0.0478
P184I	0.0629	0.0675	0.0622	0.0618	0.0647	0.0594	0.0599	0.0639	0.0612	0.0474	0.0572	0.0607	0.0626	–	–	0.094	0.0627
T174D	0.0659	0.113	0.071	–	0.0728	0.0723	0.0679	0.064	0.08	0.0649	0.0636	0.0566	0.0642	0.0793	0.0678	0.0883	0.0582
C152M	–	0.0702	0.0631	0.0664	–	0.054	0.0768	0.0505	0.0536	0.0477	0.068	–	–	–	–	–	–
D128Y	0.0825	0.13	–	–	0.1	0.0806	–	0.114	0.099	–	–	–	–	–	0.0918	–	–
D128W	0.0815	0.138	0.0457	–	0.173	0.0576	–	0.168	–	–	0.0862	–	0.1	0.158	0.0644	–	–
V64W	0.0652	0.123	0.0569	0.0759	0.101	0.0703	0.0853	–	–	–	0.0655	0.0895	0.105	–	–	0.0893	–
V64L	–	0.133	0.0645	–	0.0696	0.0754	–	–	0.0773	0.074	0.0638	–	–	–	–	–	–
V64R	0.0671	0.121	0.0746	–	–	–	–	0.0717	–	–	0.0636	–	0.0512	0.0777	–	0.0619	–
L5E	0.111	0.125	0.0495	–	0.0931	0.0683	0.0911	0.076	0.0537	0.0676	–	0.063	0.0538	0.0923	0.0541	0.147	–
